Molecular target: T1, TLT-1 18-188 relipidated in 20:80 PS:PC vesicles (human, UniProt Q86YW5 18-188)
T1 sequence: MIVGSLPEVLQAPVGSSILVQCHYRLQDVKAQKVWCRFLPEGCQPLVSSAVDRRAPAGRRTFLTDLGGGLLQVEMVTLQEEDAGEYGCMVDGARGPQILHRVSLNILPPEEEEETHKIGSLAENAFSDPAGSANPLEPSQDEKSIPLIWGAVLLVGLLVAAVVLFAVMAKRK
Assay: cell-based or functional assay

B1: mAb 0012-(HC-L4a-TF)2;(LC-HPC4)2 (other)
heavy chain-linker-TF: EVKLLESGGGLVQPGGSLKLSCAASGFDFSRYWMTWVRQAPGKGLEWIGEINPDSSTINYTPSLKDKFIISRDNAKNTLYLQMSEVRSEDTALYYCASGVFTSWGQGTLVTVSAASTKGPSVFPLAPCSRSTSESTAALGCLVKDYFPEPVTVSWNSGALTSGVHTFPAVLQSSGLYSLSSVVTVPSSSLGTKTYTCNVDHKPSNTKVDKRV[human IgG4 Fc with S228P (EU numbers) omitted]GSGGGGSGGGGSGGGGSSGTTNTVAAYNLTWKSTNFKTILEWEPKPVNQVYTVQISTKSGDWKSKCFYTTDTECDLTDEIVKDVKQTYLARVFSYPAGNVESTGSAGEPLYENSPEFTPYLETNLGQPTIQSFEQVGTKVNVTVEDERTLVRRNNTFLSLRDVFGKDLIYTLYYWKSSSSGKKTAKTNTNEFLIDVDKGENYCFSVQAVIPSRTVNRKSTDSPVECMGQEKGEFRE
light chain-HPC4: DVVMTQTPLSLPVSLGDQASISCRSSQSLVHRNGNTYFHWCLQKPGQSPKLLIYKVSNRFSGVPDRFSGSGSGTDFTLKISRVEAEDLGVYFCSQSTHVPYTFGGGTKLEIKRTVAAPSVFIFPPSDEQLKSGTASVVCLLNNFYPREAKVQWKVDNALQSGNSQESVTEQDSKDSTYSLSSTLTLSKADYEKHKVYACEVTHQGLSSPVTKSFNRGECEDQVDPRLIDGK
Q: What does the source list for B1?
A: FVII-mediated FXa generation % Activity lipidated TLT-1: 68%; FVIIa-mediated FXa generation % Activity lipidated TLT-1: 91%

B2: mAb 0012-(LC-L4a-TF)2;HC2 (other)
light chain-linker-TF: DVVMTQTPLSLPVSLGDQASISCRSSQSLVHRNGNTYFHWCLQKPGQSPKLLIYKVSNRFSGVPDRFSGSGSGTDFTLKISRVEAEDLGVYFCSQSTHVPYTFGGGTKLEIKRTVAAPSVFIFPPSDEQLKSGTASVVCLLNNFYPREAKVQWKVDNALQSGNSQESVTEQDSKDSTYSLSSTLTLSKADYEKHKVYACEVTHQGLSSPVTKSFNRGECGSGGGGSGGGGSGGGGSSGTTNTVAAYNLTWKSTNFKTILEWEPKPVNQVYTVQISTKSGDWKSKCFYTTDTECDLTDEIVKDVKQTYLARVFSYPAGNVESTGSAGEPLYENSPEFTPYLETNLGQPTIQSFEQVGTKVNVTVEDERTLVRRNNTFLSLRDVFGKDLIYTLYYWKSSSSGKKTAKTNTNEFLIDVDKGENYCFSVQAVIPSRTVNRKSTDSPVECMGQEKGEFRE
heavy chain: EVKLLESGGGLVQPGGSLKLSCAASGFDFSRYWMTWVRQAPGKGLEWIGEINPDSSTINYTPSLKDKFIISRDNAKNTLYLQMSEVRSEDTALYYCASGVFTSWGQGTLVTVSAASTKGPSVFPLAPCSRSTSESTAALGCLVKDYFPEPVTVSWNSGALTSGVHTFPAVLQSSGLYSLSSVVTVPSSSLGTKTYTCNVDHKPSNTKVDKRV[human IgG4 Fc with S228P (EU numbers) omitted]
Q: For B2, which “FVII-mediated FXa generation % Activity lipidated TLT-1” value is on record?
A: 59%

Q: What about the “FVIIa-mediated FXa generation % Activity lipidated TLT-1” value of the same binder?
A: 85%

— US20120178908A1 (Novo Nordisk, published 2012)
